Measured values reported in PubChem BioAssay AID624296 (National Center for Advancing Translational Sciences (NCATS), 2012).
About 9,900 (2.8%) of roughly 350,000 compounds were called active. The shares of active, inactive and inconclusive entries below differ from those in the screen. Calls follow the shape of the dose curve; as a rule, active = well fitted activation curve with a large enough effect; inconclusive = small, poorly fitted or top-dose-only effect; inactive = no such curve, though single readings can be large or run the other way. Potencies of inconclusive entries are left out as doubtful fits.

Assay: A quantitative high throughput screen for small molecules that induce DNA re-replication in MCF 10a normal breast cells. Also: nearly all actives have a fitted effect of over 50% in size.
Conditions: MCF 10A DNA re-replication, Hoechst nuclear intensity, 48 h; series mostly up to 46.1 µM
Potency is read from the fitted curve at half-maximal effect; tags tell the direction and shape of the fitted curve.

SMILES	Potency
Cn1c(NC(=O)C[n+]2cc(-c3ccc(Cl)c(Cl)c3)n3c2CCC3)cc(=O)n(C)c1=O	inactive
CCOC(=O)CC(=O)CSc1nc2cc(C)ccc2cc1C	inconclusive [activator, single point]
Cc1cc(NC(=O)c2ccccc2C)no1	inconclusive [activator, partial curve, poor fit]
Oc1ccccc1N=Nc1nc(-c2ccccc2)c(-c2ccccc2)[nH]1	inconclusive [activator, full curve, poor fit]
O=C(NCc1ccco1)c1cccc2c1C(=O)c1ccc(/C=C/c3ccccc3)cc1S2(=O)=O	active: 9.2 µM
O=S(=O)(c1ccccc1)N1CCN(CCc2ccccc2)CC1	inactive
CCCCN1C(=O)CC(SC2CC(=O)N(CCCC)C2=O)C1=O (stereo unspecified)	inconclusive [activator, single point]
O=C(C1CCN(S(=O)(=O)c2cccs2)CC1)N1CCN(c2ccccc2O)CC1	inconclusive [activator, single point]
COc1ccc(CNc2nc3ccccc3n2CCN2CCOCC2)cc1	inconclusive [activator, single point]
O=S(=O)(NCC1CCCO1)c1ccc(Cl)cc1 (stereo unspecified)	inactive
CC(C)(CNC(=O)c1cccc(NS(=O)(=O)c2ccc(Br)cc2)c1)N1CCOCC1	inconclusive [activator, partial curve, poor fit]
CCCn1c(SCC(=O)c2c(C)[nH]c(C)c2C(=O)OCC)nc2ccccc21	inactive
CCc1ccc(-c2cc(C)no2)cc1S(=O)(=O)NCCc1ccc(OC)c(OC)c1	inactive
COc1ccc(/C(C)=N/NC(=S)Nc2cc(C)ccc2C)cc1	inconclusive [activator, partial curve, poor fit]
CC(=O)c1ccc(NC(=O)COC(=O)c2c3c(nc4ccccc24)/C(=C\c2cccs2)CCC3)cc1	active: 5.8 µM
CCOC(=O)c1ccc(CSC(=N)N)o1	inconclusive [activator, single point]
Cc1cccn2cc(CCNC(=O)Cc3cccs3)nc12	inactive
Cc1cccc(N2C(=O)c3cccc4c(N(C)CCO)ccc(c34)C2=O)c1	inconclusive [activator, single point]
Cn1ncc(S(=O)(=O)Cc2ccccc2)c(Cl)c1=O	inconclusive [activator, single point]
COc1ccc(C)cc1N(CC(=O)NCCN1CCOCC1)S(=O)(=O)c1ccccc1	inactive
COC(CNC(=O)c1ccc2nc3ccccc3c(=O)n2c1)OC	inconclusive [activator, single point]
CCC(C)[C@@H](NC(=O)OC(C)(C)C)c1nnc(S(=O)(=O)Cc2cccc(C)c2)o1 (stereo partly specified)	active: 16.4 µM
CCC(=O)NC(=S)Nc1cccc(Cl)c1N1CCCCC1	inconclusive [activator, full curve]
O=C1C2CC=CCC2C(=O)N1Cc1ccccc1 (stereo unspecified)	inactive

SMILES	Potency
CCN1CCSc2ccc(C(=O)NCc3cc(Br)ccc3OC)cc21	inconclusive [activator, partial curve, poor fit]
CCOC(=O)c1cc(C)nc(S(C)(=O)=O)c1C#N	inconclusive [activator, single point]
CN(C)c1ccc2c(c1)OC(N)=C(C#N)C2c1cccc(F)c1 (stereo unspecified)	active: 4.11 µM
Nc1nonc1C(=O)NCCN=Cc1cc(Cc2ccccc2)cc(Br)c1O	inconclusive [activator, single point]
CCCC(=O)NC(c1ccc(OC)cc1)c1c(O)ccc2ccccc12 (stereo unspecified)	active: 3.66 µM
O=C1CSC(c2cccnc2)N1c1ccccc1 (stereo unspecified)	inactive
Cc1c(OC(C(=O)O)c2ccccc2)ccc2c(-c3ccccc3)cc(=O)oc12 (stereo unspecified)	inconclusive [activator, partial curve, poor fit]
COC(=O)CSC1=C(C#N)C(c2ccc3c(c2)OCO3)C2=C(CCCC2=O)N1 (stereo unspecified)	inconclusive [activator, partial curve, poor fit]
COc1ccccc1CCC(=O)Nc1cccc(S(=O)(=O)N2CCCCCC2)c1	inconclusive [activator, partial curve, poor fit]
O=C(NNC1=NCCC1)c1cccc(S(=O)(=O)N2CCCC2)c1	inactive
CCCC1CC(CCc2ccccc2)OS(=O)(=O)N1 (stereo unspecified)	inconclusive [activator, single point]
CN(c1nc(-c2ccccc2)cs1)C1CCS(=O)(=O)C1 (stereo unspecified)	inconclusive [activator, partial curve, poor fit]
S=C(N/N=C/c1ccco1)NC1CC2CCC1C2 (stereo unspecified)	inactive
COc1ccc(Cl)cc1NC(=O)CN(C)C(=O)c1cn2ccccc2n1	inconclusive [activator, single point]
COc1cc2c(cc1OC)CN(C(=O)c1ccc(N3CCCC3)c([N+](=O)[O-])c1)CC2	inactive
CCOc1ccc(NC(=O)CCN2CCN(c3ccccc3F)CC2)cc1	inconclusive [activator, single point]
O=C1C2=C(C(c3ccccc3)=NCCN2)C(c2cccc([N+](=O)[O-])c2)N1c1ccccc1 (stereo unspecified)	inconclusive [activator, partial curve, poor fit]
Cc1ccc(-c2nnn3c2nc(NCCc2ccc(S(N)(=O)=O)cc2)c2ccccc23)cc1	inconclusive [activator, full curve]
Cc1noc(/C=C/c2ccco2)c1S(=O)(=O)N1CCC(C(=O)Nc2ccc(Cl)cn2)CC1	inconclusive [activator, single point]
COc1cccc(-n2nnnc2S(C)(=O)=O)c1	active: 4.61 µM
O=S(=O)(c1ccc(NC(=S)NCCC(c2ccccc2)c2ccccc2)cc1)N1CCOCC1	active: 5.17 µM
CN(C)S(=O)(=O)c1cccc(NC(=O)/C=C/c2ccc(S(=O)(=O)N3CCOCC3)cc2)c1	inconclusive [activator, partial curve, poor fit]
CCCOc1ccc(NC(=O)OC2CCN(C)CC2)cc1	inconclusive [activator, single point]
Cn1cc([N+](=O)[O-])c(C(=O)N/N=C\c2c[nH]c3ccccc23)n1	inconclusive [activator, single point]

SMILES	Potency
CS(=O)(=O)N(CC(=O)N1CCc2ccccc2C1)Cc1ccccc1	inconclusive [activator, full curve, poor fit]
CC(=O)N(Cc1cccnc1)c1cccc(-c2nc3ccccc3s2)c1	inactive
O=C(COC(=O)C1CC2CCCC(C1)C2=O)NNC(=O)c1ccccc1F (stereo unspecified)	inactive
O=C1CC(NS(=O)(=O)c2ccc(F)cc2)CN1c1ccc2c(c1)OCCO2 (stereo unspecified)	inactive
CN1CCN(CCCN2c3ccccc3Sc3ccc(S(=O)(=O)N(C)C)cc32)CC1	inconclusive [activator, single point]
CCNC(=S)Nc1scc(-c2ccccc2)c1C(=O)OCC	inconclusive [activator, single point]
CC(CCc1ccccn1)C(=O)C(C)CCc1ccccn1 (stereo unspecified)	inactive
CCC(C)Sc1nc2c(c(=O)[nH]c(=O)n2C)n1CC(O)COc1ccccc1C (stereo unspecified)	inconclusive [activator, single point]
Cc1ccc(CNC(=O)[C@]2(C)CCC[C@@]3(C)C4CC[C@@]5(C)C[C@]4(CCC32)CC5=O)cc1 (stereo partly specified)	inconclusive [activator, single point]
c1ccc(CC2CCCNC2)cc1 (stereo unspecified)	inconclusive [activator, partial curve, poor fit]
CCOc1ccc(N=Nc2c(C)[nH]n(-c3ccccc3)c2=O)cc1	inactive
O=C(CN1CCN(c2ccc(Cl)cc2[N+](=O)[O-])CC1)N1CCOCC1	inconclusive [activator, partial curve, poor fit]
c1ccc2c(N3CCCCC3)nc(N3CCCCC3)nc2c1	inactive
CCC(=O)n1nc(NCc2ccc(OC)c(OC)c2)nc1NCc1ccc(OC)c(OC)c1	inactive
CSc1ccccc1OCc1cc(C(=O)N(C)Cc2ccc3nsnc3c2)no1	inconclusive [activator, partial curve, poor fit]
CC1(C)N=C(SCC(=O)Nc2ccc(Cl)cc2)C(c2ccc(Cl)cc2)=N1	active: 18.4 µM
CCN(CC)S(=O)(=O)c1cc(OC)c(Cl)cc1OC	inconclusive [activator, full curve, poor fit]
O=C(NCc1cccnc1)c1cc(Sc2cccc(Cl)c2)nc2ccccc12	inconclusive [activator, single point]
COc1ccc(Cc2nn[nH]n2)cc1	inconclusive [activator, single point]
CCCN(C(=O)CCNC(=O)c1ccc(Cl)cc1)c1c(N)n(Cc2ccccc2)c(=O)[nH]c1=O	inconclusive [activator, single point]
Cc1cccc2cc(C(c3nnnn3CC3CCCO3)N3CCCc4ccccc43)c(=O)[nH]c12 (stereo unspecified)	inactive
Oc1ccc(-c2nnc(SCC3CCCCC3)o2)cc1	inconclusive [activator, single point]
CCOC(=O)c1sc(NC(=O)Nc2ccccc2Cl)cc1C	inconclusive [activator, single point]
